According to PubChem BioAssay AID1745853 (National Center for Advancing Translational Sciences (NCATS), 2022):
The other results are listed elsewhere or left out. Further columns of the screen follow, without active or inactive calls.

Key:
Assay in all cases: Primary Screen for Target Class Profiling of Small Molecule Inhibitors of Methyltransferases
[1] = molecular target: Glycine N-methyltransferase (Homo sapiens) (UniProt Q14749); conditions: purified enzyme, MTase-Glo SAH luminescence; measured here: GNMT inhibition; at 40 µM; stronger effect = lower value
Summary of the method: (§1)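 Each enzyme was reacted with SAM and its substrate, with compounds tested once at 40 uM; SAH formed was read by MTase-Glo luminescence.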

[2] = molecular target: Guanidinoacetate N-methyltransferase (Homo sapiens) (UniProt Q14353); conditions: purified enzyme, MTase-Glo SAH luminescence; measured here: GAMT inhibition; at 40 µM; stronger effect = lower value
Summary of the method: as §1

[3] = molecular target: Histamine N-methyltransferase (Homo sapiens) (UniProt P50135); conditions: purified enzyme, MTase-Glo SAH luminescence; measured here: HNMT inhibition; at 40 µM; stronger effect = lower value
Summary of the method: as §1

[4] = molecular target: Nicotinamide N-methyltransferase (Homo sapiens) (UniProt P40261); conditions: purified enzyme, MTase-Glo SAH luminescence; measured here: NNMT inhibition; at 40 µM; stronger effect = lower value
Summary of the method: as §1

[5] = molecular target: Phenylethanolamine N-methyltransferase (Homo sapiens) (UniProt P11086); conditions: purified enzyme, MTase-Glo SAH luminescence; measured here: PNMT inhibition; at 40 µM; stronger effect = lower value
Summary of the method: as §1
% is scaled to controls: 0 for no effect and ±100 for the full control effect.

Row | SMILES | activity change, negative = inhibition [1] | activity change, negative = inhibition [2] | activity change, negative = inhibition [3] | activity change, negative = inhibition [4] | activity change, negative = inhibition [5]
1 | CC(=O)N1CCc2nn(CC(=O)Nc3ccccc3C(C)C)c(=O)cc2C1 | -1.65% | -6.24% | -2.32% | -9.64% | -2.15%
2 | COc1ccc(-c2cnc([C@@H]3COCCN3Cc3nc4ccccc4n3C)[nH]2)cc1 | -8.25% | -8.75% | -7.35% | -16.1% | 2.28%
3 | CC1(C)CC=C(C#Cc2ccccc2)c2cc(/C=C/c3ccc(C(=O)O)cc3)ccc21 | -37.5% | -3.97% | -3.11% | -33.2% | -4.27%
4 | CCC(C(=O)NCc1c(C)ncc2c1CCNC2)n1cccn1 (stereo not drawn) | -3.7% | -1.64% | -3.61% | -3.65% | -8.5%
5 | O=C(O)c1ccnc(-c2ccnc(NCCCN3CCCC3=O)n2)c1 | -6% | -8.64% | -4.8% | -14.2% | -10.7%
6 | O=C(C1CCOCC1)N1CCOC[C@H](Oc2ccccc2)C1 | -3.87% | -3.6% | -1.57% | -7.32% | -1.12%
7 | Cc1ccc(Nc2ccnc(N3CCC(C(=O)NCc4ccc(F)cc4)CC3)n2)cc1 | -4.49% | 1.51% | -5.36% | -7.06% | 6.39%
8 | Cc1ccc(C)c(NS(=O)(=O)c2ccc3c(c2)[C@H]2C=CC[C@H]2[C@@H](c2cccc(Cl)c2)N3)c1 | -6.89% | -0.503% | -14% | -18.1% | -11.7%
9 | C=C1C[C@]23C[C@H]1CC[C@H]2C1=C[C@H]2OC(=O)[C@@](C)([C@H]1[C@@H]3C(=O)O)[C@H]2O | 4.22% | 3.54% | 8.78% | -7.11% | 2.64%
10 | C[N+]1(CCCCC[N+]2(C)CCCC2)CCCC1 | 8.9% | 14% | 14.3% | -3.61% | -1.5%
11 | CC(C)C1(O)NC(=O)C(CC2(O)c3ccccc3N3C(=O)C(C)(C)NC32)n2c1nc1ccccc1c2=O (stereo not drawn) | -0.86% | -6.19% | 1.32% | -20.4% | 0.83%
12 | C[C@H](NC(=O)C(C)(C)Oc1ccc(C(F)(F)F)cn1)[C@@H](Cc1ccc(Cl)cc1)c1cccc(C#N)c1 | -2.6% | -15.2% | 3.59% | -30.5% | -5.96%
13 | COC(=O)C1C(c2ccc(O)cc2)C(C(=O)OC)C1c1ccc(O)cc1 (stereo not drawn) | 3.6% | 3.53% | 9.71% | -9.06% | 2.38%
14 | CCOC(=O)C1CCCN(c2nc3c(S(=O)(=O)c4ccc(Br)cc4)nnn3c3ccccc23)C1 (stereo not drawn) | -4.38% | 2.82% | 5.37% | 5.46% | -1.2%
15 | COC(=O)c1ccc([C@@H]2Nc3c(Cl)cccc3[C@@H]3C=CC[C@@H]32)cc1 | -15% | 1.58% | -8.44% | -13.7% | -9.97%
16 | CC1(C(=O)NC2CCCCC2)Cn2c(cc3occc32)C(=O)N1Cc1ccccc1Cl (stereo not drawn) | -5.63% | -6.78% | 4.23% | -4.99% | -9.66%
17 | CC(C)CCNC(=O)C1(C)Cn2nc(C(=O)N3CCOCC3)cc2C(=O)N1C (stereo not drawn) | 5.02% | 0.251% | 5.75% | 9.33% | 4.13%
18 | Cc1ccc(N2C(=O)c3cc4occc4n3CC2(C)C(=O)NC2CCCCC2C)cc1 (stereo not drawn) | 2.52% | 0% | 4.79% | 4.33% | 2.32%
19 | Cc1ccc(S(=O)(=O)N2CCC(Oc3ncccc3C(=O)N(C)C)C2)cc1C (stereo not drawn) | -3.95% | -4.74% | -3.15% | -12.3% | -5.17%
20 | CCC(C)NC(=O)Cn1nc2n(C)c(=O)c3ccc(C(=O)NC4CCCCC4)cc3n2c1=O (stereo not drawn) | 5.72% | 0% | 5.22% | 5.46% | 5.49%

Row | SMILES | activity change, negative = inhibition [1] | activity change, negative = inhibition [2] | activity change, negative = inhibition [3] | activity change, negative = inhibition [4] | activity change, negative = inhibition [5]
21 | COc1ccccc1N1CCN(CC(C(=O)NC(C)(C)C)c2ccccc2)CC1 (stereo not drawn) | 1.96% | 0.077% | 10% | -15.5% | 0.293%
22 | O=C(Nc1ccccc1)c1cc([N+](=O)[O-])ccc1Cl | -9.21% | 2.63% | 0.237% | -6.28% | 5.75%
23 | COc1ccc(NC(=O)N2Cc3c(sc4c3CCCC4)-n3cccc3C2c2cccc(C)c2)cc1OC (stereo not drawn) | -2.73% | -0.229% | 0.799% | -8.95% | 0.725%
24 | C[C@H]1CC2C3CCC4=CC(=O)C=C[C@]4(C)[C@@]3(Cl)[C@@H](O)C[C@]2(C)[C@@]1(O)C(=O)CO (stereo partly drawn) | -11.2% | 1.73% | -2.14% | -5.77% | 3.88%
25 | C=C1C(=O)O[C@@H]2/C=C(\C)CC/C=C(\C)CC[C@@H]12 | 1.69% | -4.71% | 7.19% | -15.2% | 3.17%
26 | CC(=O)O[C@H]1CC2C(COC(=O)CC(C)C)=CO[C@@H](OC(=O)CC(C)C)C2[C@]12CO2 (stereo partly drawn) | 2.29% | 10.2% | 9.01% | -1.93% | 2.6%
27 | COc1ccc(Nc2nc3c(S(=O)(=O)c4ccc(F)cc4)nnn3c3ccccc23)c(OC)c1 | 2.78% | 1.06% | 11.1% | 14.3% | 3.61%
28 | CCOc1ccccc1NC(=O)N1CCCCCCNC(=O)CC1c1ccccc1 (stereo not drawn) | -2.71% | 0.804% | -0.879% | 1.59% | -1.88%
29 | Cc1ccc(-c2nnn3c2nc(Cl)c2ccccc23)cc1 | -7.29% | 0.661% | -2.96% | -6.01% | -6.56%
30 | Cc1cccc(C(=O)N2CCCCCNC(=O)CC2c2ccccc2)c1 (stereo not drawn) | -1.57% | 1.71% | -0.788% | -1.28% | -0.162%
31 | O=C(NC1CCOCC1)c1cccc(S(=O)(=O)N2CCC[C@H]2CO)c1 | -3.17% | -5.73% | -0.816% | -11.9% | -8.03%
32 | Cc1ccc(-n2nc(C)c([C@H]3C=C[C@@H](OC(=O)N[C@H](C)c4ccccc4)C3)c2C)cc1Cl | -8.81% | -10% | -7.36% | -16.7% | -9.9%
33 | CCCCSCc1cc(C(=O)N2CC(C)(C)C(C)(O)C2)oc1C (stereo not drawn) | -1.72% | 1.14% | 1.19% | -3.2% | 3.75%
34 | CC[N+]1(CC)CCC(=C(c2ccccc2)c2ccccc2)C1C (stereo not drawn) | 2.23% | 5.3% | -6.84% | -11.2% | 5.59%
35 | COc1ccccc1CNS(=O)(=O)c1ccc2[nH]c3c(c2c1)CCCC3 | -6.79% | 1.16% | -3.62% | -15% | -10.1%
36 | COc1ccccc1-n1cc(C(=O)N2CCCC2c2nonc2C)cn1 (stereo not drawn) | -1.74% | 0.111% | 2.11% | 1.93% | 17.1%
37 | CC(C)CCn1c(=O)c2ccc(C(=O)NC3CCCC3)cc2n2c(=O)n(C)nc12 | -0.216% | 3.46% | 2.74% | 2.67% | -2.18%
38 | CC1=C(CC(=O)O)c2cc(F)ccc2/C1=C\c1ccc(S(C)=O)cc1 (stereo not drawn) | -6.46% | 11.5% | -2.6% | -7.8% | 1.65%
39 | CCCN1C(=O)c2cc3ccc(OC)cc3n2CC1(C)C(=O)NC1CCCCC1 (stereo not drawn) | 3.79% | 0.249% | 3.88% | 4.3% | 0.681%
40 | N[C@@H](CC(=O)N1CCn2c(nnc2C(F)(F)F)C1)Cc1[nH]nc2c(F)c(F)ccc12 | 5.04% | 2.9% | 4.99% | -12.7% | -1.77%

Row | SMILES | activity change, negative = inhibition [1] | activity change, negative = inhibition [2] | activity change, negative = inhibition [3] | activity change, negative = inhibition [4] | activity change, negative = inhibition [5]
41 | O=C1NC(=NCc2cccs2)S/C1=C/c1ccc2ncccc2c1 | – | 2.28% | – | -15.5% | 1.44%
42 | Cc1ccc(C)c(Cn2nc3n(C)c(=O)c4ccc(C(=O)NCC(C)C)cc4n3c2=O)c1 | 1.65% | 2.6% | 5.44% | -1.21% | -3.12%
43 | COc1ccc2cc3n(c2c1)CC(C)(C(=O)NC1CCCCC1)N(CCN1CCOCC1)C3=O (stereo not drawn) | 0.95% | 4.2% | -2.01% | -0.511% | -5.08%
44 | CN1C(=O)c2cc(C(=O)NC3CC3)nn2CC1(C)C(=O)NCc1ccccc1 (stereo not drawn) | 2.1% | -0.784% | -0.349% | -0.775% | -2.26%
45 | CC(C)Oc1ccc(CN2C(=O)c3cc4sccc4n3CC2(C)C(=O)NC2CCCCC2C)cc1 (stereo not drawn) | -0.668% | 4.1% | -2.93% | -2.29% | -5.43%
46 | Fc1ccccc1C1Nc2ccc(Br)cc2C2C=CCC21 (stereo not drawn) | -9.87% | -3.34% | -10.2% | -18.5% | -11.1%
47 | CCCS(=O)(=O)N1CCC(c2noc(-c3cccnc3)n2)C1 (stereo not drawn) | 1.59% | 1.01% | 0.245% | -3.59% | 13.1%
48 | COCCNC(=O)CCc1nnc2n(Cc3ccccc3)c(=O)c3ccccc3n12 | -2.68% | 0% | 8.86% | 12.9% | 3.52%
49 | CS(=O)(=O)c1ccc(CN2C[C@H](O)C[C@H]2c2nc(C3CC3)no2)cc1 | -3.57% | -7.43% | 0.525% | -11.5% | -8.21%
50 | Cc1ccc(Cn2c(=O)c3ccccc3n3c(=O)n(CC(=O)Nc4ccc(F)cc4)nc23)cc1 | 6.56% | 2.1% | 9.86% | 7.74% | 6.03%
51 | COc1ccc(NC(=O)c2ncn3c2C(=O)N(C2CC2)C(C)(C(=O)NCc2ccc(F)cc2)C3)cc1Cl (stereo not drawn) | -0.172% | 0.826% | 12.7% | 2.8% | 5.42%
52 | CCNS(=O)(=O)c1ccc2[nH]c(=O)[nH]c2c1 | 4.68% | 0% | 2.19% | -0.676% | -2.9%
53 | O=C(NCc1nnc2n1C(C(=O)NCc1ccc(F)cc1)CC2)Nc1cccnc1 (stereo not drawn) | -2.04% | -7.78% | 0.735% | -7.94% | -5.27%
54 | C[C@]12CCC(=O)C=C1CC[C@@H]1[C@@H]2[C@@H](O)C[C@@]2(C)[C@H]1CC[C@]2(O)C(=O)CO | 2.37% | 9.79% | 4.82% | -3.92% | 4.43%
55 | Cc1nc(C)n(CCNC(=O)[C@H]2CNC[C@@H](C(=O)N3CCOCC3)C2)n1 | -0.109% | 2.47% | 1.67% | -2.61% | 1.89%
56 | CNC(=O)[C@@H]1CN(C(=O)c2ccncc2)C[C@H]1CO | -1.36% | 0.368% | 1.15% | 1.55% | 1.55%
57 | C[C@H]1[C@@H]2[C@@H](O)C([C@H](C)C(=O)N3CCC(Cc4ccccc4)CC3)CC[C@@]2(C)CC[C@@H]1NC(=O)c1cnccn1 (stereo partly drawn) | -4.05% | -2.2% | -1.76% | -5.26% | -8.82%
58 | COc1ccc(CNC(=O)C2(C)Cn3cnc(C(=O)NC4CCCCC4)c3C(=O)N2C2CC2)cc1 (stereo not drawn) | -0.03% | 0% | 12.5% | -1.1% | 3.21%
59 | C/C(=C\CC/C(C)=C/CC[C@]1(C)CCc2cc(O)cc(C)c2O1)CC/C=C(\C)C(=O)O | -12.2% | -28.7% | -0.951% | -51.9% | -12.2%
60 | C=C1C(=O)O[C@H]2[C@H]1[C@@H](OC(=O)/C(C)=C\C)C[C@]1(C)O[C@@H]1[C@H]1O[C@H]1C(=C)[C@H]2O | -3.33% | 0.477% | 9.14% | -8.51% | -0.239%
